Data on 22 molecules can be found in publication PMC12136788.

This is one part of the list.

Sequences and labels used below:
T1: UNK ZnF1-3 (human, UniProt Q9C0B0 31-174)
T1 sequence: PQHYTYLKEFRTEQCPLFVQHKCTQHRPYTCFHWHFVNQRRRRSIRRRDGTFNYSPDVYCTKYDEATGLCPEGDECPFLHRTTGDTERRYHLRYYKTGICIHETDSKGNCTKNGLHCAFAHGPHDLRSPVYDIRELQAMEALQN

B1: 127918021_127918818_1762_CDS_ENSMUSG00000025369_ENSMUST00000099131|mouse|control|control (ssRNA)
RNA: GGGAGUUCUACAGUCCGACGAUCGCCCUUAGCCGUCUCUGGCACCAGGUCAUCCAGCUCUUUGCCCUUCCGCCCAGCCUUGGUGUCAGCAUCAACCUGGCGGCCCUGUGGAGGCUUCGGCUGAAGAGGAACCAGCCCUGAUGGCAACAGAGGAUUGAGCAUCA
B2: 35570169_35570289_840_CDS_ENSG00000197056_ENST00000373330|human|control|control (ssRNA)
RNA: GGGAGUUCUACAGUCCGACGAUCGCUGGUGUAACAGUAAGUGCCACAGUUCUCACAGCAGUUCAUGAUGAAGUUGUUAGCAGAGUGAAACUUUGAAAGGCAGGCAUUACUGCAAAGAUUAUGUUUCACAUUUUGGUAUUUUACCAACAGAGGAUUGAGCAUCA
B3: 39911895_39915287_1535_3pUTR_ENSG00000121892_ENST00000303538|human|control|control (ssRNA)
RNA: GGGAGUUCUACAGUCCGACGAUCAUUAAACAAUGACUGGCAAAUUUCACACUUUCUAAUCUCACAGGAACAUGAAUAUCAUUAAAUCGUCCAAGAAAACAUUGCCAAAGAGGACGAUUCUGUGUUGCCAAAUCAGAAUCUUUGCAACAGAGGAUUGAGCAUCA
B4: chr17:46381155:46381156:-_ENSMUSG00000067148_ENSMUST00000087026|mus_hu|FALSE|FALSE (ssRNA)
RNA: GGGAGUUCUACAGUCCGACGAUCCCCCAUCAGUACUUUGAUGGCUUCACUCACCAGCACAUCUGGUGGCAACACCCCCGUUGACUCAACAGAGAAGAUAUAAUGAUCUCGAACCCGGGCAAGCCUCACAACCUUCUUUAGCUUCAACAGAGGAUUGAGCAUCA
B5: chr4:144460044:144460045:+_ENSG00000153147_ENST00000283131|hu_hu|motif|central (ssRNA)
RNA: GGGAGUUCUACAGUCCGACGAUCUCGGUCCAUAGCCUGAAGAUCUACUUGGGGAUUCCAAUCAGAAUCAUACAAAAUUACGGCAUCAGCAGUCGCAAGAUUGAUGCCAAGACCACCAGCACGCGUGCUUAACAUGAAAACAAACAACAGAGGAUUGAGCAUCA
B6: 8888064_8890295_3602_CDS_ENSG00000134313_ENST00000427284|human|control|control (ssRNA)
RNA: GGGAGUUCUACAGUCCGACGAUCUGAGAUGAGAUGUUGGGAGCCGCCAGGGUAAUACCUUGGCGUGUAAAGGUAUGGGGCAAAGAAUGGCCUGUUGUAGAAGGGAUGCUGAGGGCCCGUCAUGCCGCUGUAAUAGCUGCUGUGCAACAGAGGAUUGAGCAUCA
B7: chr19:12019223:12019224:+_ENSMUSG00000046139_ENSMUST00000061618|mus_hu|motif|central (ssRNA)
RNA: GGGAGUUCUACAGUCCGACGAUCAGGGAAGGUAGGAAAGGCAUGUAGUGGAAAUGGUCAGUAGACAACGGUAGAGGGAAGCGGGGUAACAUCACUGGGGAACAGCUGGUGGAGCCUGGGGUUACAGCAUGGGAAGAAAUGGAGCAACAGAGGAUUGAGCAUCA
B8: chr9:59598888:59598889:+_ENSMUSG00000039585_ENSMUST00000128341|mus_hu|FALSE|FALSE (ssRNA)
RNA: GGGAGUUCUACAGUCCGACGAUCGAGCAGGCACAUCCCCCGCCGCACCCCGCCCAGAGAGCACGCGUUGGACCGCCGCCUCAACCGCUGCCAGCGGCCGCCUCUGCCGGUGCAACUACUGCCUCCGCCGCCGCCUCUCGCAGUCAACAGAGGAUUGAGCAUCA
B9: chr15:81756291:81756292:-_ENSMUSG00000022476_ENSMUST00000023113|mus_mus|FALSE|FALSE (ssRNA)
RNA: GGGAGUUCUACAGUCCGACGAUCUCAGCUCCUCAGCAAUGGAAUCGUUGAGUUUCCGCUCAAACUGCCACGGGGGUAUGCGCACGGUGUCCACCAUCUCCACCAGCACGAACAUCCUGCGCUAGGGCUCUGGAGACCGGAGAGCAACAGAGGAUUGAGCAUCA
B10: chr5:176562935:176562936:+_ENSG00000165671_ENST00000439151|hu_hu|FALSE|FALSE (ssRNA)
RNA: GGGAGUUCUACAGUCCGACGAUCGGUACUGGAAUCUGGAUCAUCCUGAAAAGAUAAAUUUAUUGAGUUUAAUUGCUCUUCUAUUGUAAUGUUUGUGUCUCCUAGUGAAAAGGGGGCUGGGAGAAGGGCUGCUUUUUCAUUGCUCAACAGAGGAUUGAGCAUCA
B11: 113631540_113639574_425_3pUTR_ENSG00000086827_ENST00000200135|human|control|control (ssRNA)
RNA: GGGAGUUCUACAGUCCGACGAUCCCUGCAACUGUUUAAGCAAACUUAGGACAACUGAGUCUCUUUCCAACUGCUGCUUUAAGUCUGUAAAUUCACCGGUUGAUACGUGAAGAUCCCGGCGGACCUCACUCUCUAUCCUGGAUUCAACAGAGGAUUGAGCAUCA
B12: chr3:179287964:179287965:+_ENSG00000136518_ENST00000429709|hu_hu|hu_hu_hu_mus_True|8_8 (ssRNA)
RNA: GGGAGUUCUACAGUCCGACGAUCCUUGAGUGGUGAGAUGGCCUCCAUGUUCUCCCUGGGCACGCGGAGGGCAUUGGUGUCUAUGUAGUAGGUGGGCCCGCCCUGCUUGCCUUUGUCACCAUCAAUCUCCAUUAAUGUACUUCCCAACAGAGGAUUGAGCAUCA
B13: chr3:52014989:52014990:+_ENSG00000248487_ENST00000273596|hu_hu|FALSE|FALSE (ssRNA)
RNA: GGGAGUUCUACAGUCCGACGAUCGAGUGGGUUAGUUCAAGGUAGAUGGUCAAGGAAGGCAAGCAGGACAAGGUGGAAGUCUUGCGGCUUGUGGAGGUAACAGGCAUGGCCUGCAUUGCGUAGCUUCACCACAGAGUGGUUGGGCAACAGAGGAUUGAGCAUCA
B14: chr1:78482781:78482782:+_ENSG00000162616_ENST00000370763|hu_mus|FALSE|FALSE (ssRNA)
RNA: GGGAGUUCUACAGUCCGACGAUCUAACACCACAGUGAUAGAUGACUGUUCUUUAGGGAAAUUAUGUAAGGUGCAUAGCAUGAGGAACUUAACAGAACACUGUAAAUGGACAAUUAAUGCCAAGUAACAGUAUUUUCUCUAAAACAACAGAGGAUUGAGCAUCA
B15: chr4:83276511:83276512:-_ENSG00000138668_ENST00000353341|hu_mus|motif|central (ssRNA)
RNA: GGGAGUUCUACAGUCCGACGAUCCUUCACCACCUGUUGGGGAUAAGUUGCAAAUGGAAUAAUUUAGUAUGGUUUGUAGCGGUUUUGAUGUCCACCUCGCCUGGAUACUUUCCCAUAACCACUCUGCUGAUUGCUAUAAUCACCCAACAGAGGAUUGAGCAUCA
B16: chr22:38882006:38882007:-_ENSG00000100201_ENST00000396821|hu_hu|motif|central (ssRNA)
RNA: GGGAGUUCUACAGUCCGACGAUCAGGAGGAGGAGGGGGAGGAGGAGGAGGGUAUUGGUAGGCAGUCUGCCCCAUGUAACCGGUCAUAUUGGUAGCUCCCGGAGGCUGUGCAAACUGUUGUGACAUCAGUGGCUGUGGCUGCUGCAACAGAGGAUUGAGCAUCA
B17: chr7:149068622:149068623:-_ENSMUSG00000025139_ENSMUST00000001950|mus_hu|mus_mus_mus_hu_False|1_18 (ssRNA)
RNA: GGGAGUUCUACAGUCCGACGAUCGUGAGGCCUCUGAGUGUGGCUUGUGGUCUGUCCUGGGUUAGAGUUGUUAAUAUCACGGAACAUACCAUCUAGAACGUUCCAGUCCCGCCUGACCAUCCACCCUCCAAUGGAGAAUCUGCUCAACAGAGGAUUGAGCAUCA
B18: chr7:140710375:140710376:-_ENSG00000090263_ENST00000324787|hu_hu|FALSE|FALSE (ssRNA)
RNA: GGGAGUUCUACAGUCCGACGAUCGUGGUGAUUUGGAUACCAAUCAUAAGUCUCCUUCUUCUUGGCCAAGGGCAGUUCACUAAACAGUUUCACCACUUUCAUAGACUUGGAAUUAGUAGGCCUGGUGACUUCACCAAAUAGCCGCAACAGAGGAUUGAGCAUCA
B19: chr3:185643329:185643330:-_ENSG00000136527_ENST00000456380|hu_hu|FALSE|FALSE (ssRNA)
RNA: GGGAGUUCUACAGUCCGACGAUCGACAUGGGAGAAUGGCUGUGGCUGUGCCGUCUACGAUAAUCUCGACUGUAAGACCUGCUACGUGAUCGUCUAUGGGAGCGGGAGCGAGACCGUGACCGGGUAUAAUGCCUUCGGGAGCUUCAACAGAGGAUUGAGCAUCA
B20: chr4:99962207:99962208:+_ENSG00000164024_ENST00000296411|hu_mus|FALSE|FALSE (ssRNA)
RNA: GGGAGUUCUACAGUCCGACGAUCCCCAGCAGCAAUGUCCAAAACUUCUCUGGCAAGCCUACACACGAGUCGCAUCCCUUCUAUAUCUUCAGAUGAGAGUAACUUAAUCUGAGAGGUACCUUUAAGAGCCUGCUCCGAUUCAGACAACAGAGGAUUGAGCAUCA
B21: chr11:18503389:18503390:-_ENSG00000074319_ENST00000251968|hu_hu|hu_hu_hu_mus_True|38_88 (ssRNA)
RNA: GGGAGUUCUACAGUCCGACGAUCAUUUUCCAUUUUCUCCAGAGCAGAACUGAGUUCUUCAUCCUUCUUUUUCAAAAGUUCUAUGUUUUUAUCAACUUCGGCUACUUCUUGAUCUAAGCGGGUGACCAUCUCUUCCAGUUUCUGCAACAGAGGAUUGAGCAUCA
B22: chr14:92628060:92628061:+_ENSG00000165934_ENST00000298875|hu_mus|FALSE|FALSE (ssRNA)
RNA: GGGAGUUCUACAGUCCGACGAUCUUGACAUCAUGUCCUUUACACAAUGGCAUACUGUUCAUAUAAAAGGUCUCGUAUCCUAUAAAAGUCUUGACAAAGGCAGCCUUCUAAUCCGAUGCGUCCAGUUUCUGUUCUGCGAACUGCCAACAGAGGAUUGAGCAUCA

The assay concerns the target T1, UNK ZnF1-3. Nature of the assay: nsRBNS (natural sequence RNA bind-n-seq); RBNS binding buffer (assumed for nsRBNS): 25 mM Tris pH 7.5, 150 mM KCl, 3 mM MgCl2, 0.01% Triton X-100, 500 ug/ml BSA, 20 U/ml SUPERase-In, 4 C; UNK is unkempt and MSI1 is Musashi-1; names of the RNAs are library labels; protein concentration not given here; high values mean tight binding.
The molecule B1 showed a binding signal of 0.893 enrichment R.

The molecule B2 returned a binding signal of 1.14 enrichment R.

With B3, the binding signal is 0.864 enrichment R.

As for B4, the binding signal was 1.11 enrichment R.

With B5, the binding signal was 1.21 enrichment R.

B6: the binding signal was found to be 1.09 enrichment R.

In turn, B7 had a binding signal of 2.2 enrichment R.

Take B8: the binding signal is 0.652 enrichment R.

Regarding B9, the binding signal stood at 1.3 enrichment R.

In turn, B10 yielded a binding signal of 1.3 enrichment R.

Molecule B11 returned a binding signal of 0.633 enrichment R.

Consider B12, for which the binding signal came to 0.679 enrichment R.

For the molecule B13, the binding signal is 1.23 enrichment R.

For the molecule B14, the binding signal is 0.679 enrichment R.

The molecule B15 showed a binding signal of 0.785 enrichment R.

In turn, B16 registered a binding signal of 1.64 enrichment R.

With B17, the binding signal turned out to be 0.734 enrichment R.

The molecule B18 had a binding signal of 0.891 enrichment R.

With B19, the binding signal came out at 1.52 enrichment R.

The molecule B20 showed a binding signal of 1.2 enrichment R.

The molecule B21 came in with a binding signal of 0.41 enrichment R.

With B22, the binding signal amounted to 0.645 enrichment R.
